# Test results published in the supplement of paper PMC8728848.
# The other results are listed elsewhere or left out.
# B1: Surfactant Protein D (Human); Neck + Carbohydrate Recognition Domain (NCRD) (Homo sapiens) (protein)
# chain: MLLFLLSALVLLTQPLGYLEAEMKTYSHRTMPSACTLVMCSSVESGLPGRDRDGREGPRGEKGDPGLPGAAGQAGMPGQAGPVGPKGDNGSVGEPGPKGDTGPSGPPGPPGVPGPAGREGALGKQGNIGPQGKPGPKGEAGPKGEVGAPGMQGSAGARGLAGPKGERGVPGERGVPGNTGAAGSAGAMGPQGSPGARGPPGLKGDKGIPGDKGAKGESGLPDVASLRQQVEALQGQVQHLQAAFSQYKKVELFPNGQSVGEKIFKTAQFVKPFTEAQLLCTQAGGQLASPRSAAENAALQQLVVAKNEAAFLSMTDSKTEGKFTYPTGESLVYSNWAPGEPNDDGGSEDCVEIFTNGKWNDRACGEKALVVCEF
# Legend:
# Assay in all cases: glycan array binding signal (z-score within array); higher = stronger binding
# Details in all cases: glycan notation: IUPAC condensed, linker removed; mutation: R349A
# [1] = target: Fuc(a1-3)[Gal(b1-4)]GlcNAc(b1-2)Man(a1-6)[Gal(b1-4)GlcNAc(b1-2)Man(a1-3)]Man(b1-4)GlcNAc(b1-4)GlcNAc
# Method in brief: (§1)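 Glycan array binding is given as a within-array Z-score, which can be read as non-binding when negative. The arrays, 3228 of them, came from the Consortium for Functional Glycomics database and were retained only where the protein sequence was available. Z-scores were averaged across arrays of the same protein sequence at different concentrations or buffers and across linkers.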
# [2] = target: Fuc(a1-3)[Gal(b1-4)]GlcNAc(b1-3)Gal(b1-3)[Fuc(a1-4)]GlcNAc
# Method in brief: as §1
# [3] = target: Fuc(a1-3)[Gal(b1-4)]GlcNAc(b1-4)Gal(b1-4)[Fuc(a1-3)]GlcNAc
# Method in brief: as §1
# [4] = target: Fuc(a1-3)[Gal(b1-4)]GlcNAc(b1-4)Gal(b1-4)[Fuc(a1-3)]GlcNAc(b1-4)Gal(b1-4)[Fuc(a1-3)]GlcNAc
# Method in brief: as §1
# [5] = target: Fuc(a1-3)[Gal(b1-4)]GlcNAc6S
# Method in brief: as §1
# [6] = target: Fuc(a1-3)[Gal3S(b1-4)]Glc6S
# Method in brief: as §1
# [7] = target: Fuc(a1-3)[Gal3S(b1-4)]GlcNAc
# Method in brief: as §1
# [8] = target: Fuc(a1-3)[Gal3S(b1-4)]GlcNAc6S
# Method in brief: as §1
# [9] = target: Fuc(a1-3)[GalNAc(b1-4)]GlcNAc
# Method in brief: as §1
# Fuc(a1-4)GlcNAc = target: Fuc(a1-4)GlcNAc
# Method in brief: as §1
# Fuc(b1-3)GlcNAc = target: Fuc(b1-3)GlcNAc
# Method in brief: as §1
# Gal(a1-2)Gal = target: Gal(a1-2)Gal
# Method in brief: as §1
# Gal(a1-3)Gal = target: Gal(a1-3)Gal
# Method in brief: as §1
# Gal(a1-3)Gal(b1-3)GlcNAc = target: Gal(a1-3)Gal(b1-3)GlcNAc
# Method in brief: as §1
# Gal(a1-3)Gal(b1-4)Glc = target: Gal(a1-3)Gal(b1-4)Glc
# Method in brief: as §1
# Gal(a1-3)Gal(b1-4)GlcNAc = target: Gal(a1-3)Gal(b1-4)GlcNAc
# Method in brief: as §1
# [10] = target: Gal(a1-3)Gal(b1-4)[Fuc(a1-3)]GlcNAc
# Method in brief: as §1
# Gal(a1-3)GalNAc = target: Gal(a1-3)GalNAc
# Method in brief: as §1
# [11] = target: Gal(a1-3)[Gal(a1-4)]Gal(b1-4)GlcNAc
# Method in brief: as §1
# Gal(a1-4)Gal(b1-4)Glc = target: Gal(a1-4)Gal(b1-4)Glc
# Method in brief: as §1
# Gal(a1-4)Gal(b1-4)GlcNAc = target: Gal(a1-4)Gal(b1-4)GlcNAc
# Method in brief: as §1
# Gal(a1-4)GlcNAc = target: Gal(a1-4)GlcNAc
# Method in brief: as §1
# Gal(a1-6)Glc = target: Gal(a1-6)Glc
# Method in brief: as §1
# Gal(b1-2)Gal = target: Gal(b1-2)Gal
# Method in brief: as §1
# Gal(b1-3)Gal = target: Gal(b1-3)Gal
# Method in brief: as §1
# Gal(b1-3)Gal(b1-4)GlcNAc = target: Gal(b1-3)Gal(b1-4)GlcNAc
# Method in brief: as §1
# Gal(b1-3)GalNAc = target: Gal(b1-3)GalNAc
# Method in brief: as §1
# [12] = target: Gal(b1-3)GalNAc(b1-3)Gal(a1-4)Gal(b1-4)Glc
# Method in brief: as §1
# [13] = target: Gal(b1-3)GalNAc(b1-4)Gal(b1-4)Glc
# Method in brief: as §1
# [14] = target: Gal(b1-3)GalNAc(b1-4)[Neu5Ac(a2-3)]Gal(b1-4)Glc
# Method in brief: as §1
# Gal(b1-3)GlcNAc = target: Gal(b1-3)GlcNAc
# Method in brief: as §1
# [15] = target: Gal(b1-3)GlcNAc(b1-2)Man(a1-3)[Gal(b1-3)GlcNAc(b1-2)Man(a1-6)]Man(b1-4)GlcNAc(b1-4)GlcNAc
# Method in brief: as §1
# [16] = target: Gal(b1-3)GlcNAc(b1-3)Gal(b1-3)GlcNAc
# Method in brief: as §1
# [17] = target: Gal(b1-3)GlcNAc(b1-3)Gal(b1-4)Glc
# Method in brief: as §1
# [18] = target: Gal(b1-3)GlcNAc(b1-3)Gal(b1-4)GlcNAc
# Method in brief: as §1
# [19] = target: Gal(b1-3)[Fuc(a1-4)]GlcNAc
# Method in brief: as §1
# [20] = target: Gal(b1-3)[Fuc(a1-4)]GlcNAc(b1-3)Gal(b1-3)[Fuc(a1-4)]GlcNAc
# Method in brief: as §1
# [21] = target: Gal(b1-3)[Fuc(a1-4)]GlcNAc(b1-3)Gal(b1-4)GlcNAc
# Method in brief: as §1
binder,measurement,setting,value
B1,glycan array binding signal (z-score),[1],-0.569
same,glycan array binding signal (z-score),[2],-0.667
same,glycan array binding signal (z-score),[3],-0.655
same,glycan array binding signal (z-score),[4],-0.636
same,glycan array binding signal (z-score),[5],1.97
same,glycan array binding signal (z-score),[6],1.93
same,glycan array binding signal (z-score),[7],0.887
same,glycan array binding signal (z-score),[8],2.55
same,glycan array binding signal (z-score),[9],-0.711
same,glycan array binding signal (z-score),Fuc(a1-4)GlcNAc,-0.024
same,glycan array binding signal (z-score),Fuc(b1-3)GlcNAc,-0.301
same,glycan array binding signal (z-score),Gal(a1-2)Gal,-0.249
same,glycan array binding signal (z-score),Gal(a1-3)Gal,-0.669
same,glycan array binding signal (z-score),Gal(a1-3)Gal(b1-3)GlcNAc,-0.301
same,glycan array binding signal (z-score),Gal(a1-3)Gal(b1-4)Glc,-0.543
same,glycan array binding signal (z-score),Gal(a1-3)Gal(b1-4)GlcNAc,-0.728
same,glycan array binding signal (z-score),[10],-0.759
same,glycan array binding signal (z-score),Gal(a1-3)GalNAc,-0.834
same,glycan array binding signal (z-score),[11],-0.857
same,glycan array binding signal (z-score),Gal(a1-4)Gal(b1-4)Glc,-0.284
same,glycan array binding signal (z-score),Gal(a1-4)Gal(b1-4)GlcNAc,-0.293
same,glycan array binding signal (z-score),Gal(a1-4)GlcNAc,-0.242
same,glycan array binding signal (z-score),Gal(a1-6)Glc,-0.467
same,glycan array binding signal (z-score),Gal(b1-2)Gal,-0.684
same,glycan array binding signal (z-score),Gal(b1-3)Gal,-0.335
same,glycan array binding signal (z-score),Gal(b1-3)Gal(b1-4)GlcNAc,-0.169
same,glycan array binding signal (z-score),Gal(b1-3)GalNAc,-0.459
same,glycan array binding signal (z-score),[12],-0.808
same,glycan array binding signal (z-score),[13],-0.62
same,glycan array binding signal (z-score),[14],0.216
same,glycan array binding signal (z-score),Gal(b1-3)GlcNAc,-0.571
same,glycan array binding signal (z-score),[15],-0.197
same,glycan array binding signal (z-score),[16],-0.664
same,glycan array binding signal (z-score),[17],-0.473
same,glycan array binding signal (z-score),[18],-0.39
same,glycan array binding signal (z-score),[19],-0.44
same,glycan array binding signal (z-score),[20],0.122
same,glycan array binding signal (z-score),[21],0.257
